This list was built around the results that the source calls inconclusive (neither active nor inactive); the mix of calls is not that of the screen. For part of these data: Potencies of inconclusive entries are left out as doubtful fits. Active and inactive are the calls of the source. Unless noted, the call rests on the fitted dose curve; in most records, active means well fitted curve in the direction sought with a large enough effect; inconclusive means small, poorly fitted or top-dose-only effect, or another doubt; inactive means no such curve, though single readings can be large; an effect the other way counts as inactive or inconclusive.
Experiments:
[1] = molecular target: Endonuclease 4 (Escherichia coli (strain K12)) (UniProt P0A6C1); test: Counterscreen for APE1 Inhibitors: qHTS Validation Assay for Inhibitors of Endonuclease IV (AID 1708)
How it was run: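 Conditions: 2 nM enzyme, 50 nM TAMRA/BHQ-2 substrate, pH 7.5 Tris buffer with 2 mM MgCl2, RT. Compound preincubation 15 min; readout three fluorescence reads 60 s apart, third-minus-first.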

[2] = qHTS for differential inhibitors of proliferation of Plasmodium falciparum line GB4 (AID 1816); settings: Potency: Plasmodium falciparum GB4 proliferation inhibition;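 further: parasite growth measured after 72 h incubation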
[3] = qHTS for differential inhibitors of proliferation of Plasmodium falciparum line 3D7 (AID 1876)
[4] = qHTS for differential inhibitors of proliferation of Plasmodium falciparum line Dd2 (AID 1882); settings: Potency: Plasmodium falciparum Dd2 proliferation inhibition; further: nearly all actives have a fitted effect of over 65% in size
How it was run: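 SYBR Green DNA fluorescence (ex 485, em 535 nm) after overnight lysis quantifies parasite growth; compound exposure lasted 72 h at 37 C on infected red cells at 2.5% hematocrit, 0.3% parasitemia (final). Artemisinin 0.29 uM and vehicle wells define normalization.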

[5] = molecular target: Ferritin light chain (Equus caballus) (UniProt P02791); test: qHTS Validation Assay for Identification of Novel General Anesthetics (AID 2323)
Sequence of UniProt P02791 (P02791 whole entry, looked up): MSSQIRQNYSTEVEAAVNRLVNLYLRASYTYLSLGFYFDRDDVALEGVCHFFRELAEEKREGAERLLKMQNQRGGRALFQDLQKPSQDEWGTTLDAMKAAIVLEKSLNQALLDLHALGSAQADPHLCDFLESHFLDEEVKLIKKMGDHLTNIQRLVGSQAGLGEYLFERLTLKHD
How it was run: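 Competitive displacement of the profluorescent anesthetic 1-AMA (50% saturated, PBS) from 10 uM apoferritin, 10 min, room temperature. Activity is normalized 380/535 nm fluorescence; concentration-response fitted with a four-parameter Hill equation.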

[6] = molecular target: RecQ-like DNA helicase BLM (Homo sapiens) (UniProt P54132); test: qHTS Validation Assay for Inhibitors of Bloom's syndrome helicase (BLM) (AID 2364)
Sequence of UniProt P54132 (P54132 whole entry, looked up): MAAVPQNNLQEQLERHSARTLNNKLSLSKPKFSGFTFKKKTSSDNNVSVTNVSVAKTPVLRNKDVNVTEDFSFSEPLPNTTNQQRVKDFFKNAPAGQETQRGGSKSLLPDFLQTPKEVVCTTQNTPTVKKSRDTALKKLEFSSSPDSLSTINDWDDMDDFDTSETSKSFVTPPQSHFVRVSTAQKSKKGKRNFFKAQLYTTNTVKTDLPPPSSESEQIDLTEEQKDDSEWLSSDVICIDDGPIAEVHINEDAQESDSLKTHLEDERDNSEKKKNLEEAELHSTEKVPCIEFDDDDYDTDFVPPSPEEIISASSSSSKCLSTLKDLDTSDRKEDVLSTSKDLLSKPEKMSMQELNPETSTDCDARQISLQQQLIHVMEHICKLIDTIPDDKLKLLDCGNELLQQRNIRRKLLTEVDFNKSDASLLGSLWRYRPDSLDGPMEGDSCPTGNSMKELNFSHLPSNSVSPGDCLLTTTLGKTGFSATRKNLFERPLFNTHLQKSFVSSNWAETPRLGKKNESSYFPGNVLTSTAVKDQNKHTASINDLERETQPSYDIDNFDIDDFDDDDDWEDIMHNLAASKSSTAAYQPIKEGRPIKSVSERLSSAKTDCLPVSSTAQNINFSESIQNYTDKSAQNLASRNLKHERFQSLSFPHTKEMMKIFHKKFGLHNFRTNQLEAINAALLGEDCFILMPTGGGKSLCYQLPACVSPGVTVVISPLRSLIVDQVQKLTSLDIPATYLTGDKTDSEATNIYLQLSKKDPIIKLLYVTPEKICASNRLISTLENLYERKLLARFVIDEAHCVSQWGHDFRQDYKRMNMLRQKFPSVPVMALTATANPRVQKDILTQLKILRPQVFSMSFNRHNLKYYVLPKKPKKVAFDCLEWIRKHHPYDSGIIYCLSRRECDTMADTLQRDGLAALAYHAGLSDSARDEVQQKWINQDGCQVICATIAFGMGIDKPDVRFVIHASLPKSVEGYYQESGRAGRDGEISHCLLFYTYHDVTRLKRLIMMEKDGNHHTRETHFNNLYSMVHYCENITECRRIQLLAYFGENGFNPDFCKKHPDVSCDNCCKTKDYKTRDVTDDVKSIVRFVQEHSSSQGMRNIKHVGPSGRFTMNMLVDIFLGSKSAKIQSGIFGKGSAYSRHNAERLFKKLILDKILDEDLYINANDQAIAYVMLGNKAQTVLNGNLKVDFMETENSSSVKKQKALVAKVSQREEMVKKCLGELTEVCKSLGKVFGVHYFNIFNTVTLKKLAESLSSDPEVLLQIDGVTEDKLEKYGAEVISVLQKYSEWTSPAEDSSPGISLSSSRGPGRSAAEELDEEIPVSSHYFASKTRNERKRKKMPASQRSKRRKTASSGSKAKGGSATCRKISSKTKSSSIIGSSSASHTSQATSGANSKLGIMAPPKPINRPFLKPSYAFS
How it was run: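 50 nM BLM preincubated 15 min at room temperature with compound in pH 8.0 Tris buffer containing 2.5 ug/ml poly(dI-dC); started with 200 nM TAMRA/BHQ-2 forked duplex and 2 mM ATP (final). Unwinding read as TAMRA fluorescence increase, two reads 2 h apart.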

[7] = Validation screen for inhibitors of Lassa infection (AID 463096; calls by dose curve)
[8] = Validation screen for small molecules that induce DNA re-replication in MCF 10A normal breast cells (AID 463097); further: nearly all actives have a fitted effect of over 60% in size
How it was run: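 Read-out is Hoechst total nuclear intensity by fluorescence scanning imager, flagging increased high-DNA-content nuclei. Compounds were incubated with MCF 10A cells for 48 hr (37 C, 5% CO2) before 40 min staining.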

[9] = molecular target: M-phase phosphoprotein 8 (Homo sapiens) (UniProt Q99549); test: qHTS Validation Assay for Inhibitors for MPP8 Chromodomain Interactions with Methylated Histone Tails (AID 488949); further: nearly all actives have a fitted effect of over 55% in size
Sequence of UniProt Q99549 (Q99549 whole entry, looked up): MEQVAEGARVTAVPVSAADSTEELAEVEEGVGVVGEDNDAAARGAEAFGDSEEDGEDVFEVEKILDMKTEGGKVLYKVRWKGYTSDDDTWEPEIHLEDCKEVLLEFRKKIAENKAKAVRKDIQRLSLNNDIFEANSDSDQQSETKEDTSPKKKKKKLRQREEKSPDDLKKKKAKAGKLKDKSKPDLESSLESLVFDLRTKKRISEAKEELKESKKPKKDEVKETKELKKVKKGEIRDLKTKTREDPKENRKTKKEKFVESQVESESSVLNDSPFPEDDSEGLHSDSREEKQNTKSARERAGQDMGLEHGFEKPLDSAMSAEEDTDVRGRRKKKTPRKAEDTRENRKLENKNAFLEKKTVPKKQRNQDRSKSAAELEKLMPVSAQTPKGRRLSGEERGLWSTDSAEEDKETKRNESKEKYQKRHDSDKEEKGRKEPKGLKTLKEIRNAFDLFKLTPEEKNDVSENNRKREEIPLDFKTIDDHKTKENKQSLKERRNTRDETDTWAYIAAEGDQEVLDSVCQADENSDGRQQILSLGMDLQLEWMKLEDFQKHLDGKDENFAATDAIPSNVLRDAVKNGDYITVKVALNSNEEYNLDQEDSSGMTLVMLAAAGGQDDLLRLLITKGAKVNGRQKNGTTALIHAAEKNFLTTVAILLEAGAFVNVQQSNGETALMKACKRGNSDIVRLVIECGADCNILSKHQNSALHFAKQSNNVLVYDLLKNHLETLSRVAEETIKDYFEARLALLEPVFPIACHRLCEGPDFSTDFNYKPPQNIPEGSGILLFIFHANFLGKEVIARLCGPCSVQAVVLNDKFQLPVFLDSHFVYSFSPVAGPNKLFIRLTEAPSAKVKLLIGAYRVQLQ
How it was run: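 AlphaScreen proximity signal from streptavidin donor and Ni-chelate acceptor beads (10 ug/mL each) reported binding of MPP8 to trimethyl-K9 H3(1-18) peptide, both at 50 nM. The complex formed 30 min before a 30 min compound exposure at room temperature, in PBS pH 7.4.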

[10] = molecular target: Transient receptor potential cation channel subfamily V member 1 (Homo sapiens) (UniProt Q8NER1); test: HTS Assay for Compounds that Act as Enhancers of the Vanilloid Receptor 1 (AID 488979)
Sequence of UniProt Q8NER1 (Q8NER1 whole entry, looked up): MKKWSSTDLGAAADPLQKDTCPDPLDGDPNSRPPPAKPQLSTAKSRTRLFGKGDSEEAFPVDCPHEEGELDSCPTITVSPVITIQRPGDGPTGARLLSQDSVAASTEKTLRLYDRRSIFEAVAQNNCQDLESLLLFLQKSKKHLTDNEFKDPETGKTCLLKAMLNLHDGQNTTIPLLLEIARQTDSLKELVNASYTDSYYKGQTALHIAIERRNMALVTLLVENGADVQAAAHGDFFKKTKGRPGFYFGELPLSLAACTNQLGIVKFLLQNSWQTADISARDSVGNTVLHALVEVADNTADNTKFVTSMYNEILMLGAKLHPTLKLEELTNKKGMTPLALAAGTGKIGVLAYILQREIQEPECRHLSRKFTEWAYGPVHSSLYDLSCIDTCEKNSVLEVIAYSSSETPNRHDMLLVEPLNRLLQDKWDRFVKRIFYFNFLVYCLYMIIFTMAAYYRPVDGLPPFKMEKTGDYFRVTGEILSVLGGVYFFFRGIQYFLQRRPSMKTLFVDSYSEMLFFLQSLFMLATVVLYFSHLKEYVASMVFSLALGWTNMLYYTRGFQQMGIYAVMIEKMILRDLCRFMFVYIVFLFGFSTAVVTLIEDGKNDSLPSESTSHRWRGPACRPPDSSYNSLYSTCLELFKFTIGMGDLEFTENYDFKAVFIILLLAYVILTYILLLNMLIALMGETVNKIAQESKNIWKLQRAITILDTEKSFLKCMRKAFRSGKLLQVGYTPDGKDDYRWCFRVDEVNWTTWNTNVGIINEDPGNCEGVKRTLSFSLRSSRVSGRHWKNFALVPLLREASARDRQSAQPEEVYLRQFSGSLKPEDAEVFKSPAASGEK
How it was run: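 TRPV1 cells loaded with Fluo-8 calcium dye; compound added and Ca2+ signal (ex 480/em 520 nm) followed 3 min, then capsaicin at EC20 added and read 2 more min to detect enhancement.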

[11] = qHTS for differential inhibitors of proliferation of Plasmodium falciparum line 7G8 (AID 1815);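 further: parasite growth measured after three days of incubation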
[12] = Quantitative high throughput screen for delayed death inhibitors of the malarial parasite plastid, 96 hour incubation (AID 488745); further: nearly all actives have a fitted effect of over 70% in size
How it was run: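 Decreased firefly luciferase luminescence indicates inhibited growth of reporter-integrated P. falciparum after two generations (96 h, 37 C, 5% CO2). Infected erythrocytes at 0.1% parasitemia, 2% hematocrit, in Albumax-supplemented RPMI 1640.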
Potency means the concentration at half of the fitted maximal effect; tags describe the fitted curve by direction and shape.

Structure (SMILES) | Potency [1] | Potency [2] | Potency [3] | Potency [4] | Potency [5] | Potency [6] | Potency [7] | Potency [8] | Potency [9] | Potency [10] | Potency [11] | Potency [12]
C[C@]12C=CC(=O)C=C1CCC1C2=CC[C@]2(C)[C@@H](C(=O)CN3CCN(c4cc(N5CCCC5)nc(N5CCCC5)n4)CC3)CC[C@@H]12 (stereo not given in full) | inconclusive [inhibitor, full curve, poor fit] | active: 1.26 µM | active: 0.794 µM | active: 10 µM | inconclusive [inhibitor, full curve] | inconclusive [inhibitor, full curve] | inconclusive [inhibitor, partial curve, poor fit] | inconclusive [activator, partial curve] | inconclusive [inhibitor, partial curve] | inconclusive [activator, single point] |  | 
CCCN(CCC)[C@@H]1CCc2c(F)ccc(O)c2C1 |  |  |  | active: 1.41 µM |  | inactive |  |  | inconclusive [inhibitor, partial curve] |  | active: 1.12 µM | active: 2.62 µM

— PubChem BioAssay (NCATS)
